The values below come from PMC10726135.

Some of the results follow. At the low end of the ranking the order means little. The protein was read in a cell extract, so binding may be indirect.

For the assay, the target named is T1, HNF4alpha2 (COS-7 nuclear extract) (UniProt P41235).
T1 sequence: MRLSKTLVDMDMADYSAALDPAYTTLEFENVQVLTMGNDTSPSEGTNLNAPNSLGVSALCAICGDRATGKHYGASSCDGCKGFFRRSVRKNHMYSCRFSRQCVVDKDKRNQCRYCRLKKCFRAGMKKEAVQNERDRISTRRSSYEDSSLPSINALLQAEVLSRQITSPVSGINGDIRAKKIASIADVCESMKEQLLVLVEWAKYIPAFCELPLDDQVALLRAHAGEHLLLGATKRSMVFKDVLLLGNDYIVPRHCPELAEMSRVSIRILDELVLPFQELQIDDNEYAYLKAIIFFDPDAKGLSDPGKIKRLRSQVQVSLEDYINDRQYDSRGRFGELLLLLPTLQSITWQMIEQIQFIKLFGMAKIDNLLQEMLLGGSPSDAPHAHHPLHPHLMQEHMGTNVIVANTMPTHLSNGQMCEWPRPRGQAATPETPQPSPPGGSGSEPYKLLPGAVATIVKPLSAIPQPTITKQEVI
Kind of assay: protein-binding microarray. Conditions: COS-7 nuclear extract on double-stranded Agilent 4x180k PBM; binding buffer, salt, pH and temperature not given; high values mean tight binding; double strand, one strand shown; sequences stand for … in …GCCTAGGGAGATTAGAGTATCGGTCGA
Regarding AAATCAGCCAGTGATTCAACTCTGACCCAT, the binding signal (log2 normalized intensity) came out at 3.

In the case of TGAAAGCCAAGGCAGATATGAAAGAGCCAT, the binding signal (log2 normalized intensity) is -1.25.

On to TGTTCCCGTCCGTGCGGTCGGGCGCGCGGG, for which the binding signal (log2 normalized intensity) is -1.01.

Consider GTAAATGATTCTCTTTGGAAATTGATTGGG, for which the binding signal (log2 normalized intensity) was 0.503.

TGATAGCATCCCAGTAGAAAAAAAAATGGG: the binding signal (log2 normalized intensity) was -1.08.

CCTTATCTGGCCGCCTAATCCCCTGGCCTT: the binding signal (log2 normalized intensity) was determined as 1.73.

On to TCTAGCTACAGGAGAACAAAGTTCACCTTT, for which the binding signal (log2 normalized intensity) is 4.56.

Turning to GTAAATTATCTTGATGGTTAAAGTCCAATC, the binding signal (log2 normalized intensity) stood at 4.89.

With GAGGCTCAGACCTGACCTTTGGATTCCCAG, the binding signal (log2 normalized intensity) was found to be 6.53.

For the sequence AGAGTTCATAATTTTGGACTTTGTGCAAAT, the binding signal (log2 normalized intensity) was found to be 5.

In the case of CACCTGTGGGTAATTAACTCCCCCTGCCCC, the binding signal (log2 normalized intensity) turned out to be 4.7.

AGGACCTTGGGAAAGGAGAAGCTGGAGATA: the binding signal (log2 normalized intensity) is -1.08.

Consider ACAGCAGCTGACAGATGGTGACCAGACTAC, for which the binding signal (log2 normalized intensity) is -1.16.

Take TTCAACAGAACTGTTTGAGGGTAAAGATCT: the binding signal (log2 normalized intensity) came to 0.338.

CTTTTTGGGACTGATAACTTAGGCCCATAT: the binding signal (log2 normalized intensity) is -1.13.

On to CTGCTTCTTGGGTCAAAGTCTCTGGTACAA, for which the binding signal (log2 normalized intensity) stood at 2.73.

TAGCTTATCATCTGATCCTTGTACCTGCGA: the binding signal (log2 normalized intensity) was found to be 2.35.

Take TCCTATTTCAACATCCTCTCAGGTCAAAGT: the binding signal (log2 normalized intensity) was 4.06.

Take TAAAAAATGCAAGTTTATCGAGCTTGATTT: the binding signal (log2 normalized intensity) was -0.831.

For the sequence TTTATTTACTTATGTTGTCCGGACACCAAC, the binding signal (log2 normalized intensity) came out at 0.562.

As to GCACATGAATGATCAAAGGTTGGTTTTTGG, the binding signal (log2 normalized intensity) stood at 3.45.

Take GTGCACTTCTCTTTGAGTCCCAATCCCCCA: the binding signal (log2 normalized intensity) was 4.31.

With TGGAGGAGGGCGAGGCCGAGCCTCAGCCGG, the binding signal (log2 normalized intensity) was -1.17.

On to TCCTCCCATTCCAGCTCTTTACTCAGGTCA, for which the binding signal (log2 normalized intensity) was 1.5.

For the sequence CAGCCCCTTATCAGGAGAGGAGGCCCACAC, the binding signal (log2 normalized intensity) worked out at 1.25.

Consider GGCTAGCATTCCTGCACACCTGCCTTTGAT, for which the binding signal (log2 normalized intensity) was -1.14.

As for GATCAGTGTTGAGAATCCCTCCCCTGTGCA, the binding signal (log2 normalized intensity) is 3.7.

For CGGACTTTGTCCTTTGATTTTTTAAAGTAA, the binding signal (log2 normalized intensity) was 4.4.

As for GGAAGGCAACCACAGCCTCTGCATTTGCTC, the binding signal (log2 normalized intensity) was -1.11.

Regarding TTCTAGAACCAGGAATCCTAGGGAAGAAAC, the binding signal (log2 normalized intensity) was -1.17.

On to TTAAATAAGTCCTAAGCCTTATTATCTGCT, for which the binding signal (log2 normalized intensity) was -1.27.

As to CTCTTCCAAGTGTTCTTTACTTCCTTTTGT, the binding signal (log2 normalized intensity) amounted to 1.38.

Regarding ACTATTTGATGAGTCTTAGAGTCCAGACAC, the binding signal (log2 normalized intensity) is 1.67.

For the sequence TGAGTGAGTAGGTTCTCAGCTGACATTGGT, the binding signal (log2 normalized intensity) amounted to 0.748.

With TGGGCATCTGCAGGGCAGCAGACTCAGAAA, the binding signal (log2 normalized intensity) was -1.1.

With AATGTGACCCCTTTCATGAATAAATGACAT, the binding signal (log2 normalized intensity) amounted to 2.21.

For the sequence AGTGGTTTAAAAACTTATCTTGTGACCTTT, the binding signal (log2 normalized intensity) is 6.81.

For the sequence CATGTTGGCATTCCAGGATGAAGGAAGAGG, the binding signal (log2 normalized intensity) was -1.12.

For AATGACTAAGGCAGGGAAGGAGAGTGACCT, the binding signal (log2 normalized intensity) is 2.87.

On to AGAGAGGGACTAGAACTCAGTGTGAACTCA, for which the binding signal (log2 normalized intensity) was found to be 0.753.

Consider TATTCATGTCCCTACCACATACAGAATCCT, for which the binding signal (log2 normalized intensity) is 0.317.

With AAGAAAGTTCAGCCCTTAGGACCAGGGGGG, the binding signal (log2 normalized intensity) is -1.21.

Regarding TTGGAAGCCACATTAAGTGACTTAATTATC, the binding signal (log2 normalized intensity) is -0.801.

In the case of GCCACCATGCTCGGCTGCCTCTCCAAACAA, the binding signal (log2 normalized intensity) was -1.15.

Take GCATATGCCAACAGGTGCTCTTTATCAGCA: the binding signal (log2 normalized intensity) stood at 0.0224.

Consider AATGACACTAGCAGAAGAGACAGTCAATTA, for which the binding signal (log2 normalized intensity) is -0.744.

In the case of GCCGCTGACAAGCAGCCTCAGTGGCTCACA, the binding signal (log2 normalized intensity) is -1.31.

For CAGCGGTGCCTCAACCGAGCGTCCAAGCTC, the binding signal (log2 normalized intensity) was -1.09.

With CGCTAGCTTTCTGGTCTTTGTTCTTTACTT, the binding signal (log2 normalized intensity) came out at 1.89.

For TCCAGGCTTGTCCTTTTGACCACAGTTATC, the binding signal (log2 normalized intensity) came out at 2.33.

In the case of ATTATCTACAGAGATAACAGGCCACAACTT, the binding signal (log2 normalized intensity) was -0.703.

Consider CCTCGTGGTGCTGATCCCAGCCCCACGGCT, for which the binding signal (log2 normalized intensity) is -0.652.

Take ATTGTCCAAGGGCTGTAGCAACCAAGTACC: the binding signal (log2 normalized intensity) is -0.865.

As for TACAGTGATGTTTGTCAAATGCTTCCAAGA, the binding signal (log2 normalized intensity) was -1.18.

With CCTCCCTGCCTTAGTCCCAGTATGGTCTCA, the binding signal (log2 normalized intensity) worked out at 1.02.

Consider GGCTGAACATGACTGGCATTCCCCTATGTC, for which the binding signal (log2 normalized intensity) was found to be 1.03.

Turning to TGAGATGAAGAGGCCAGGGGCACTCTCTGT, the binding signal (log2 normalized intensity) is -1.08.

Turning to TCAAGGCTGCCTGGCAGGGTGGGGTGGGGG, the binding signal (log2 normalized intensity) was -1.13.

As for AAAATTAAAGCGGACGGGCTGCGGAGGCGA, the binding signal (log2 normalized intensity) was -1.24.

As to ATTCATCCTCCAAAACCCAGTTCATAGGTC, the binding signal (log2 normalized intensity) is 3.41.

Consider TGGGGAAACTGTTATCTCTCAACTCAGTGA, for which the binding signal (log2 normalized intensity) was -0.543.

As to GGACCGCCAAGGAAGCGATGGGCTGGCCCT, the binding signal (log2 normalized intensity) was -1.07.

In the case of CATACTGAAAAAGGGTTGTGCAAACTTCAG, the binding signal (log2 normalized intensity) was determined as 1.04.

Turning to CCACACAGCACGTAATAGTTCATGAAATGG, the binding signal (log2 normalized intensity) came out at 0.713.

On to GCGCGGCCTCCCCAGAGGCTGGTCAGAATT, for which the binding signal (log2 normalized intensity) was determined as 0.66.

Consider CCTTGATGTGTATTTGTAGCTTCAAACCAG, for which the binding signal (log2 normalized intensity) amounted to 1.24.

Turning to ACACCAACCTGTTCCAAAGTCCACCGTGGT, the binding signal (log2 normalized intensity) was 4.78.

Regarding ATAGGCAGAAGGGACTAGCCTTATCTCAGA, the binding signal (log2 normalized intensity) was -1.06.

Take CCCCCGGCTCTACGCAAGTGGTACCTCCCG: the binding signal (log2 normalized intensity) stood at 2.58.

For TAACATGTATCAACATGTTTATCCTTCAAC, the binding signal (log2 normalized intensity) is 0.569.

Turning to CTGTTTCTTTGTGTGTCAACAGAGTGCTTA, the binding signal (log2 normalized intensity) worked out at 1.53.

Consider TTAGATTCCATGCAGCAGCATCCAGCCCCA, for which the binding signal (log2 normalized intensity) amounted to 3.05.

Regarding TTTAACCAGAGTCTACAGGTCAGACCTGTT, the binding signal (log2 normalized intensity) was 1.37.
